According to PubChem BioAssay AID1508624 (National Center for Advancing Translational Sciences (NCATS), 2021):
The whole screen tested about 48,000 compounds, of which about 120 (0.25%) were called active. Roughly 4% stayed inconclusive and do not appear here. Calls follow the shape of the dose curve; as a rule, active = well fitted activation curve with a large enough effect; inconclusive = small, poorly fitted or top-dose-only effect, or another doubt; inactive = no such curve, though single readings can be large or run the other way. The list shows a part of the results, in another mix than the full data. Where no call is shown, the source filed none.

assay: Primary qHTS for Identification of Small Molecule Activators of Huntingtin-Antisense Promoter Activity; conditions: HEK293 HTT-AS promoter firefly luciferase reporter, 24 h; activity change, positive = activation: at 57.5 µM (top of the series), percent change from vehicle, -100% = no light; also: nearly all actives have a fitted effect of over 55% in size
How it was run: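 Firefly luciferase readout (Dual-Glo, 10 min RT) after 24 h, 37 °C compound exposure (final up to 57.5 uM) of HEK293 reporter cells cultured 24 h beforehand; PTC124 at 50 uM final as control inhibitor; activity scaled vehicle 0%, zero RLU -100%.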
Potency is read from the fitted curve at half-maximal effect.

SMILES	activity change, positive = activation	Potency
CN(C)CC(C)(C)CNc1nn2c(-c3ccccc3)nnc2cc1C1CCC1	inactive: -27.2%	
CCc1ccc(NC(=O)CC2C(=O)N(c3ccc(OC)cc3)C(=O)N2Cc2cccs2)cc1 (configuration not stated)	-31.9%	
Cc1c(CC(=O)N2CCCCC2)c(=O)oc2cc(O)ccc12	1.94%	
COc1cccc(-c2nc(SCc3cccc(Br)c3)n3[nH]c(=O)cc3n2)c1	-0.804%	
COc1cc2c(cc1OC)C(c1ccc(Cl)cc1)N(c1cccc(C#N)c1)C(=O)C2 (configuration not stated)	-24.4%	
Cc1ccc(S(=O)(=O)Nc2cccc(-c3ccc(N4CCCC4)nn3)c2)c(C)c1	-1.71%	
Cc1ccc(-n2nc(C)c(C(=O)NCCCN3CCN(c4cccc(Cl)c4)CC3)c2-n2cccc2)cc1	-13%	
N#Cc1ccccc1OCC(=O)N1CCN(c2ccccc2)CC1	9.75%	
CNc1nccc(-c2cccnc2Oc2cc(C(=O)Nc3cccc(C(F)(F)F)c3)ccc2C)n1	inactive: -24.8%	
CCOc1ccc(NC(=O)CC2C(=O)N(c3ccc(Cl)cc3)C(=O)N2Cc2cccs2)cc1 (configuration not stated)	-17.6%	
Cc1ccccc1OCCn1c(-c2ccc(Cl)cc2)nc2ccccc2c1=O	7.47%	
Cc1ccc(CCNS(=O)(=O)c2ccc3c(c2)CC(C)N3C(=O)C2CCC2)cc1 (configuration not stated)	-6.6%	
COc1ccccc1CN1C(=O)CN(C2CCCCCC2)C(=O)C1c1ccc(F)cc1 (configuration not stated)	-21.7%	
COc1cc(C)cc2oc(=O)c(CC(=O)NCCc3ccc(Cl)cc3)c(C)c12	6.63%	
COc1cccc(CNC(=O)Cc2c(C)c3ccc(OC)c(C)c3oc2=O)c1	1.44%	
COc1ccc(C2=C(N3CCN(c4cccc(C)c4)C(C)C3)c3ccccc3C2=O)cc1 (configuration not stated)	38.3%	
CCOc1ccc(CCNC(=O)CCCc2nnc3n(CC)c(=O)c4sccc4n23)cc1OCC	inactive: -2.65%	
CCc1ccc(S(=O)(=O)c2cn(Cc3ccccc3F)c3cc(OC)c(OC)cc3c2=O)cc1	inactive: -19.7%	
COc1ccc(Br)cc1CNC(=O)c1ccc2c(c1)nc1n2CCC(C)C1 (configuration not stated)	inactive: -5.14%	
CCOC(=O)c1c(-c2ccc(C)cc2)csc1NC(=O)c1cc(-c2ccc(C)c(F)c2)on1	-4.4%	
CCc1ccccc1NC(=O)c1cc(-c2ccc(OC)cc2)on1	11.8%	
Cc1oc2c(cc(NS(=O)(=O)c3ccc(Br)cc3)c3ccccc32)c1C(=O)OCc1ccccc1	-7.79%	
CC(=O)Nc1ccc(S(=O)(=O)N2CCC(N3CCN(Cc4ccc(C)cc4)C(=O)C3=O)CC2)cc1	8.73%	
CC1Cc2cc(S(=O)(=O)CCC(=O)Nc3cccc(F)c3)ccc2N1C(=O)C1CC1 (configuration not stated)	-24.6%	

SMILES	activity change, positive = activation	Potency
O=C(Cn1ncn2c(cc3cc(F)ccc32)c1=O)NC1CCCCC1	-1.25%	
COC(=O)c1ccccc1NC(=O)c1cc2ccccn2n1	40.5%	
O=C(COc1ccc(Cl)cc1)NCCc1csc(-c2ccc(C(F)(F)F)cc2)n1	inactive: -30%	
CCOC(=O)N1CCC(NC(=O)c2cnn(-c3ccc(C)cc3)c2-n2cccc2)CC1	1.57%	
Cc1c(Cl)cccc1NC(=O)c1cc(-c2cccc(Cl)c2)on1	11.9%	
COC(=O)c1cc2oc3ccccc3c2n1CC(=O)Nc1cc(OC)cc(OC)c1	5.9%	
COc1ccc(C(=O)NCC(c2cccs2)S(=O)(=O)c2ccc(F)c(C)c2)cc1 (configuration not stated)	inactive: -20.5%	
Fc1cccc(Cl)c1CNc1n[nH]c(-c2ccco2)n1		active: 5.01 µM
Cc1ccc(N2CCN(S(=O)(=O)c3ccc4oc(=O)c5ncn(C)c5c4c3)CC2)c(C)c1	-11.6%	
O=S(=O)(Nc1cccc(-c2ccc(N3CCCCCC3)nn2)c1)c1ccccc1	32.2%	
CCCCN1C(=O)CN(C2CCCCCC2)C(=O)C1c1ccc(OC(C)C)c(OC)c1 (configuration not stated)	14.1%	
Cc1ccc(-n2ccnc(NCCc3ccc(S(N)(=O)=O)cc3)c2=O)c(C)c1	inactive: -24.8%	
COc1cccc(CN2C(=O)N(c3ccc(C)cc3)C(=O)C2CC(=O)Nc2cc(OC)cc(OC)c2)c1 (configuration not stated)	-12.7%	
Cc1cccc(NC(=O)c2cc3c(=O)n(Cc4ccco4)ccc3nc2C)c1	-13.7%	
O=C1C(c2ccc(F)cc2)N(CCc2ccccc2)C(=O)CN1C1CCCCCC1 (configuration not stated)	19.8%	
COc1ccc(F)cc1S(=O)(=O)Nc1cccc(-c2ccc(N3CCC(C)CC3)nn2)c1	31.3%	
COc1cc(Cl)c(C)cc1NC(=O)CC(c1ccc(F)cc1)N1Cc2ccccc2C1=O (configuration not stated)	-5.5%	
CC(=O)c1cccc(NC(=O)CSc2nc3ccccc3nc2Cc2ccc(F)cc2)c1	2.74%	
COc1ccc(OC)c(S(=O)(=O)Nc2cccc(-c3ccc(N4CCCCC4)nn3)c2)c1	13.2%	
CC(C)(C)c1ccc(C(=O)NCC(c2ccc(Cl)cc2)N2CCOCC2)cc1 (configuration not stated)	inactive: -34.2%	
CCc1ccc(S(=O)(=O)Nc2cccc(-c3ccc(N4CCOCC4)nn3)c2)cc1	6.97%	
COc1ccc2c(c1)cc1c(=O)n(CC(=O)NC3CC3)nc(C)n12	-4.65%	
O=[N+]([O-])c1cc(-c2nc(-c3ccccc3)no2)ccc1NC1CCCCC1	inactive: -14.5%	
